# Measurements: paper PMC4336329 (PLoS ONE, 2015)
# Hit rate of the full screen: of about 310,000 compounds, about 14,000 (4.5%) showed an effect of 50% or more. Effects have a minus sign here. Some of the results follow.
# Molecular target: human ether-à-go-go-related gene (hERG) potassium channel (human, UniProt Q12809)
# Experiment: primary screen, population patch clamp on CHO cells stably expressing hERG
# 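Note: peak tail current of the secondary pulse compared with the same well before compound.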
# Sequence of human ether-à-go-go-related gene (hERG) potassium channel (Q12809 whole entry, looked up): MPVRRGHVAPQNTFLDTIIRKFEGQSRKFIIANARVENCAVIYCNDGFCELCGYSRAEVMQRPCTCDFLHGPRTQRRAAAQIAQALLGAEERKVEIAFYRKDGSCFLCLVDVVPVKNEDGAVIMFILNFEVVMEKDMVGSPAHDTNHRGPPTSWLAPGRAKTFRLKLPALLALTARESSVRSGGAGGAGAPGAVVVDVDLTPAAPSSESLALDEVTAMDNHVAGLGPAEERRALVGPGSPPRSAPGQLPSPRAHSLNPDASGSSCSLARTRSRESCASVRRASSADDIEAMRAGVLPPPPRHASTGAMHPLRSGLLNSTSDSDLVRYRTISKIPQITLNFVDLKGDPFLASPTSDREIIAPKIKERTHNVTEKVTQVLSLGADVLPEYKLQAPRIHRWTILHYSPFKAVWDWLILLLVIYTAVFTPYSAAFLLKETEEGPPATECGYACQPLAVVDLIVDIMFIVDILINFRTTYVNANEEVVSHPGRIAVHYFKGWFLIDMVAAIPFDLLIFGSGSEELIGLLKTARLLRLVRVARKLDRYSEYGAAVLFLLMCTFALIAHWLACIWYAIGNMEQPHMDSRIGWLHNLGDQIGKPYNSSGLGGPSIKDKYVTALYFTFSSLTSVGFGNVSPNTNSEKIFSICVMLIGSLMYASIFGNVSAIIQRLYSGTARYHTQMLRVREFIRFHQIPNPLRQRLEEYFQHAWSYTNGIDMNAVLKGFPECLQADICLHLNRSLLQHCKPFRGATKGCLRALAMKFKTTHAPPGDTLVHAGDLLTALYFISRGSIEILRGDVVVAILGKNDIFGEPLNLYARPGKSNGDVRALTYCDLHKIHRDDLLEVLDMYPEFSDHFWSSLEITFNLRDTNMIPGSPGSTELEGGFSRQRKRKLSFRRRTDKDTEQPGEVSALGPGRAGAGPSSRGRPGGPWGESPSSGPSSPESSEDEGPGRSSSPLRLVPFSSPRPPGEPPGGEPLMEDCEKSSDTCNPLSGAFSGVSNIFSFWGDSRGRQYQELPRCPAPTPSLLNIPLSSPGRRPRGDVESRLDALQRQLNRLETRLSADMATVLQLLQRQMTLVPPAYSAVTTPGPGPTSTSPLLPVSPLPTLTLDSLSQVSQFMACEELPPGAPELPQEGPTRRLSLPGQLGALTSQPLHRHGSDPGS
row,Structure (SMILES),"hERG current change (%, negative = inhibition) at 10uM"
1,COc1ccc(C(=O)Nc2cnc3sc(C)nn3c2=O)cc1,-2.59%
2,CSc1ccccc1OCc1cc(C(=O)NCC(C)(C)N2CCOCC2)no1,-93%
3,O=C(CCN1C(=O)c2ccccc2S1(=O)=O)NCc1ccccc1,-0.597%
4,O=C(NCCn1cccn1)C1CCC(=O)N(CCc2ccccc2)C1 (stereo not drawn),9.33%
5,O=C(NCc1ccc2c(c1)OCO2)c1cc2ncc(Br)cn2n1,-8.1%
6,CC(Nc1cc(N2CCOCC2)ccc1[N+](=O)[O-])c1ccccc1 (stereo not drawn),-2.04%
7,COc1ccccc1CNC(=O)CNC(=O)Cn1cnc2ccccc2c1=O,3.18%
8,CNC(=S)NNC(=O)c1c(C)nc2cc(C)ccn12,7.15%
9,CN(CC(=O)NCCN1CCN(c2ccccc2)CC1)S(=O)(=O)c1ccc2c(c1)CCC(=O)N2,-9.99%
10,C/C=C/C=C\C(=O)Nc1cccc(C2=NOC3(C2)C[C@@H](C(N)=O)N(C(=O)/C(C)=C/C)C3)c1 (stereo partly drawn),7.54%
11,Cc1ccc(C)c(NC(=O)c2ccc(S(=O)(=O)N(C)CC3CCCO3)cc2)c1 (stereo not drawn),-19.3%
12,CCCCc1ccc(NC(=S)NCCCN2CCOCC2)cc1,-9.83%
13,O=C(NNC(=O)c1cccs1)c1csc(N2CCOCC2)n1,16.2%
14,CC(=O)c1c(O)n(C)c(=S)n(-c2ccccc2)c1=O,17.2%
15,Cc1cc(C)c(NC(=S)N2CCN(c3ccc([N+](=O)[O-])cn3)CC2)cc1C,11.8%
16,CCOC(=O)c1ccc(N2C(=O)CC(NC3CCN(C(=O)c4ccc(F)cc4)CC3)C2=O)cc1 (stereo not drawn),-12.6%
17,Cc1[nH]c2ccc(-c3nnc(SCC(=O)c4ccc(F)cc4)o3)cc2c1C,28%
18,CCCN1CCN(CC(=O)Nc2cc(OCC)ccc2OCC)CC1.Cl,-57.6%
19,CN(C)c1nc(C#N)nc(N2CCOCC2)n1,-32.3%
20,CCn1c(CNC(=O)Cc2ccc(OC)cc2)nnc1SCC(=O)Nc1ccc(C(=O)O)cc1,17%
21,Cn1ccnc1SCC(=O)c1ccc(C#N)cc1,-10.5%
22,CC(C)NS(=O)(=O)c1ccc(NC(=O)C2CCCCC2)cc1,2.54%
23,Cc1ccc(-c2noc(CCC(=O)N3CCCc4ccccc43)n2)cc1,-20.6%

row,Structure (SMILES),"hERG current change (%, negative = inhibition) at 10uM"
1,O=C(Nc1ncn[nH]1)c1ccccc1Br,-3.32%
2,CC(c1ccccc1)n1c(-c2ccncc2)n[nH]c1=S (stereo not drawn),13.3%
3,Cc1cc(C)n2nc(C(=O)OCC(=O)N(CCC#N)c3ccc(F)cc3)nc2n1,22.4%
4,Cn1c(SCC(=O)c2ccccc2)nnc1C1COc2ccccc2O1 (stereo not drawn),-11.9%
5,Cc1cccc(N(C(=O)CCC(=O)Nc2nccs2)C(C(=O)NC(C)(C)C)c2ccc(O)cc2)c1 (stereo not drawn),10.3%
6,O=C(CCCc1c[nH]c2ccccc12)NCc1ccccc1C(F)(F)F,13.1%
7,NC(=O)C1CCN(C(=O)c2ccc(NS(=O)(=O)c3ccc(F)c(F)c3)cc2)CC1,-3.95%
8,Cc1ccccc1CCNC(=O)CCn1nc(C)c2c(C)n(-c3ccccc3)nc2c1=O,-13.5%
9,CC(C)Cn1c(N)c(C=O)c(=O)n(C)c1=O,26.4%
10,Cc1ccc(NC(=O)CSc2nccn2Cc2ccccc2)cc1C,-17.4%
11,O=C(NCCN1CCOCC1)c1ccc(/C=C2\Sc3ccccc3N(Cc3ccc(F)cc3)C2=O)cc1,11%
12,O=C(CCCOc1ccc(Cl)cc1Cl)Nc1ccncc1,-12.6%
13,CSc1nc2sc3c(c2c(=O)n1C)CCC3,10.8%
14,COc1ccc(S(=O)(=O)N(CC(=O)O)c2ccccn2)cc1,6.31%
15,CN1CCN(CC(=O)Nc2cc(N3CCOCC3)ccc2[N+](=O)[O-])CC1,33.8%
16,O=C(Oc1ccc(N(Cc2cccs2)C2=NS(=O)(=O)c3ccccc32)cc1)c1ccc(Cl)cc1,-6.15%
17,CC(C)CN(C(=O)COC(=O)CCN1C(=O)c2ccccc2C1=O)C1CCS(=O)(=O)C1 (stereo not drawn),11%
18,COc1ccc(NC(=O)CN(C)C(=O)c2ccc3c(c2)NC(=O)CS3)cc1,-10.2%
19,O=C(NCCN1CCc2ccccc2C1)C1CCN(S(=O)(=O)N2CCCCC2)CC1,-53.8%
20,CC1CN(C(=O)C2CC2)C(C)CN1C(=O)C1CC1 (stereo not drawn),-4.38%
21,COc1ccc(/C=N/NC(=O)CNC(=O)c2cccs2)cc1,5.84%
22,CN1C(=O)CS(=O)c2ccc(C(=O)NC3CC3)cc21 (stereo not drawn),16.4%
